Test [1] addresses T1, GCN2(Kin.Dom.2,S808G) (Homo sapiens, UniProt Q9P2K8, S808G). Put plainly: biochemical. It counts as binding. Particulars: read-out: Percent Control.
Test [2] deals with T1, GCN2(Kin.Dom.2,S808G). Put plainly: biochemical. It counts as binding. Particulars: compound concentration 100 nM; Entrez EIF2AK4; read-out: Percent Control.

Molecules are shown by their SMILES.

In the case of `CN1C(=O)[C@@H](N2CCc3c(nn(Cc4ccccc4)c3C(N)=O)C2=O)COc2cc(Cl)ccc21` [Compound 10, (S)-2-benzyl-6-(8-chloro-5-methyl-4-oxo-2,3,4,5-tetrahydrobenzo[b][1,4]oxazepin-3-yl)-7-oxo-4,5,6,7-tetrahydro-2H-pyrazolo[3,4-c]pyridine-3-carboxamide], in test [1], the remaining activity at 1 µM turned out to be 100%. The remaining activity at 0.1 µM in test [2] was 100%.

(Values after paper PMC12090182, “Repurposing of the RIPK1-Selective Benzo[1,4]oxazepin-4-one Scaffold for the Development of a Type III LIMK1/2 Inhibitor” (ACS Chemical Biology, 2025).)
